Laboratory results as given in the supplement of paper PMC11417369.
The list shows a part of the results.

tested on: PF3D7_0420300 AP2 domain 1 (GST-tagged); assay: gcPBM binding intensity (ln(normalized median fluorescence intensity)); higher = stronger DNA binding
Method in brief: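 In this array assay, P. falciparum DNA-binding domains with a GST tag, expressed in E. coli, were applied for 1 h to primer-extended double-stranded 36-bp intergenic genomic probes and negative controls on an Agilent 4 × 180k array. Bound protein was visualised with Alexa488 anti-GST antibody at 488 nm. Binding intensity is the highest Masliner-normalised natural-log median intensity across replicate spots of either probe orientation.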

Sequence	gcPBM binding intensity (ln)
ATAAATATATGAAATATACACACTTCTTTGGTATTA [CACACA_site456]	9.32
TTTCCATATATAGAACGTACAAAGATCTTTGTTACT [XGTACX_site8972]	9.14
ATACATATATATATGTGTACATATTATATATACATA [XGTACX_site8420]	9.2
TATATATGGTATAATTGTACTAACGCCAACTATACC [XGTACX_site5853]	9.19
TAGCTTTTGCCTTTTTTTAAAAAAAAATAAATAAAT [TGCATGCA_negctrl_site242]	8.65
TATATATATTTATACACACAAACATAATACTACTTA [CACACA_site2022]	9.62
TGCATATACATATGTAGTACAATAATTTGAAAAAAA [XGTACX_site5239]	9.09
TTTTTTTTTATGTGCACACAAAAGATGCTTATATTT [CACACA_site2348]	9.42
ATATATATATATATAAAGTGAAGTATGAGGGAAATA [XGTACX_negctrl_site497]	9.56
TTATTATTTTATAACACACACATATAGATTATAGCT [CACACA_site6787]	9.52
TTTTGTATTTATGGATGTACATAATATGTTTTAAAC [XGTACX_site3278]	9.11
AAAAATTAAATATAAAGTACAAAATTAAAATCTTAA [XGTACX_site931]	9.24
TATGTATGTATTAATGCGCACACAAAAAATAACAAT [CACACA_site8551]	9.62
CAAAAGTATAATAATACACACACTTTAAAAGTTAAA [CACACA_site3343]	9.67
AAAAATAAAATAAAATAAAATAAACATACCATATGT [CACACA_negctrl_site594]	9.49
TAGATTCTTGAATAAGTGCAAAATATAATATTTATT	8.92
TAATATATGAGAAATTGTACAGAAAGGAATATGCTT [XGTACX_site5300]	9.39
TTACAAATGGTTTACACACACATAATTGTATCAATT [CACACA_site4167]	9.78
TATATATGTTCAATATGTACATATATATAAGTGTAT [XGTACX_site5157]	9.22

Sequence	gcPBM binding intensity (ln)
ATATTATTGTAGAAATGTACATATATATATATATAT [XGTACX_site1882]	9.31
AAGAAATATTTATACACACACACAAACATATATATA [CACACA_site1912]	10.2
TATATATATATATACACACACACACCCATATATATA [CACACA_site2538]	10
CTGTATTCATAATTCACACAAATGGTTTATATGAAT [CACACA_site4315]	9.22
CATACATACAGATATACACACATATATAATAATATA [CACACA_site5477]	9.76
CATATTTGCACTTTCACACATAAATATATAACTATA [CACACA_site6016]	9.44
TTTAAACAAGGATCCACACACCCCAAAAAAAAAAGA [CACACA_site680]	9.8
TTTTTATTTTTGTAGTGTACTTTATTTTTTTTGTTT [XGTACX_site8887]	9.47
TATATATATATATGTGCATGTTCCCCATGCTTCCAT [TGCATGCA_site366]	9.03
AAAATTATAATAATATGTACTTAAAAAATTTATATA [XGTACX_site632]	9.1
AATATATATATATATAGTACATATTTTTATTCATTA [XGTACX_site2156]	9.02
TATATGTATTTATATACACACATATTCTTTTGACAC [CACACA_site1206]	9.46
ATATATATATATATATGTACATATGTATATTTTTTT [XGTACX_site1299]	9.12
TTCTTCAAGGAAAACACATGCGCATTTTCACCAATT [TGCATGCA_site11]	9.15
AATACACAAATATATTGTACATATATATATATATAT [XGTACX_site2440]	9.23
ACTTATTATTAATATTGTACTCTTGAAAATTGTGGA [XGTACX_site6315]	9.1
CATATATAAATATAAATATATATATATATATATATG [XGTACX_negctrl_site493]	8.96
ATATATATTTTTTAAACACACACATAAATATTTGTG [CACACA_site8936]	9.57
TTATAATCCATAATTGCACACAATATATTCATATTT [CACACA_site3916]	9.37

Sequence	gcPBM binding intensity (ln)
AATATACAATAAAGGTGTACACATATATGATGCAAG [XGTACX_site7607]	9.66
AAAAAGAAAAAACTTACACACATATATACAGACATG [CACACA_site550]	9.93
AAAAAAAAATAAATAAATATATATAATATTTATGTT [GTGCAC_negctrl_site520]	9.12
TACAGATAATATATTGCACACGTCAGAATAATATAG [CACACA_site5036]	9.51
TGGTTAATATGTGAAAGTACATATTATATTAAAATG [XGTACX_site2636]	9.16
TATAACTTTTTTATTACACACCTATGCAATATTATA [CACACA_site6570]	9.45
AACAAATAAATAAATAAAAAGCAAATATGTCTATAT [GTGCAC_negctrl_site414]	9.66
ATAAAATAAGATCTTTTTTTTTTTTTTTTCTTTTCT [XGTACX_negctrl_site73]	8.93
ATTTATTTATTTATTTGTACATATAAATATATCAAA [XGTACX_site7383]	8.99
TATATTTATTTATACACATGCATATTTTAAGGGCTC [TGCATGCA_site885]	9.28
AGTATACAGATATATACACACATATATTTATTTATA [CACACA_site6279]	9.57
AAAGATGTTATATATATGTATATATATATGTAATAT [TGCATGCA_negctrl_site386]	9.28
CATATAATTATATATCGTACATATTAATATAATTAC [XGTACX_site401]	9.12
ATATATATATATATATGTACTTATAAGGTATATTTA [XGTACX_site3327]	9.09
TATGGTGTAATTTAGTGTATTATATTATTTTGGTTG [GTGCAC_negctrl_site445]	9.66
GTCTATTCAAAAAAGTGTACGGACATATAAACATAC [XGTACX_site6516]	9.43
TTAGCTATGATATATACACACCAACGAACGAAGAAA [CACACA_site6657]	9.59
TGCAGTCTGGAGAAAAGTACATAGTATCTGGTATCT [XGTACX_site2545]	9.12
